Results reported in the supplement of paper PMC9927326.

Legend:
Experiment in all cases: CLSI broth microdilution.
[1] = compound: CCC(C)n1ncn(-c2ccc(N3CCN(c4ccc(OCC5COC(Cn6cncn6)(c6ccc(Cl)cc6Cl)O5)cc4)CC3)cc2)c1=O [itraconazole]
[2] = compound: CCCCCOc1ccc(-c2cc(-c3ccc(C(=O)N[C@H]4C[C@@H](O)[C@@H](O)NC(=O)[C@@H]5[C@@H](O)[C@@H](C)CN5C(=O)[C@H]([C@H](O)CC(N)=O)NC(=O)[C@H]([C@H](O)[C@@H](O)c5ccc(O)c(OS(=O)(=O)O)c5)NC(=O)[C@@H]5C[C@@H](O)CN5C(=O)[C@H]([C@@H](C)O)NC4=O)cc3)no2)cc1 [micafungin]
[3] = compound: CCCCCOc1ccc(-c2ccc(-c3ccc(C(=O)N[C@H]4C[C@@H](O)[C@@H](O)NC(=O)[C@@H]5[C@@H](O)[C@@H](C)CN5C(=O)[C@H]([C@@H](C)O)NC(=O)[C@H]([C@H](O)[C@@H](O)c5ccc(O)cc5)NC(=O)[C@@H]5C[C@@H](O)CN5C(=O)[C@H]([C@@H](C)O)NC4=O)cc3)cc2)cc1 [anidulafungin]
[4] = compound: CC[C@@H]([C@H](C)O)n1ncn(-c2ccc(N3CCN(c4ccc(OC[C@@H]5CO[C@@](Cn6cncn6)(c6ccc(F)cc6F)C5)cc4)CC3)cc2)c1=O [posaconazole]
[5] = compound: CC[C@H](C)C[C@H](C)CCCCCCCCC(=O)N[C@H]1C[C@@H](O)[C@@H](NCCN)NC(=O)[C@@H]2[C@@H](O)CCN2C(=O)[C@H]([C@H](O)CCN)NC(=O)[C@H]([C@H](O)[C@@H](O)c2ccc(O)cc2)NC(=O)[C@@H]2C[C@@H](O)CN2C(=O)[C@H]([C@@H](C)O)NC1=O [caspofungin]
[6] = compound: C[C@@H](c1ncncc1F)[C@](O)(Cn1cncn1)c1ccc(F)cc1F [voriconazole]
[7] = compound: C[C@@H]1[C@H](O)[C@@H](C)/C=C/C=C/C=C/C=C/C=C/C=C/C=C/[C@H](O[C@@H]2O[C@H](C)[C@@H](O)[C@H](N)[C@@H]2O)C[C@@H]2O[C@](O)(C[C@@H](O)C[C@@H](O)[C@H](O)CC[C@@H](O)C[C@@H](O)CC(=O)O[C@H]1C)C[C@H](O)[C@H]2C(=O)O [amphotericin B]
[8] = compound: Nc1[nH]c(=O)ncc1F [flucytosine]
[9] = compound: OC(Cn1cncn1)(Cn1cncn1)c1ccc(F)cc1F [fluconazole]

Test System	MIC [1]	MIC [2]	MIC [3]	MIC [4]	MIC [5]	MIC [6]	MIC [7]	MIC [8]	MIC [9]
Candida albicans isolate 261 (Erg11p: Y257H,A114S, Fur1p: R101C, Tac1p: A736V)	0.5 mg/L [R]	0.015 mg/L [S]	≤ 0.015 mg/L [S]	0.5 mg/L [R]	0.03 mg/L [S]	1 mg/L [R]	0.5 mg/L [S]	0.12 mg/L [S]	32 mg/L [R]
Candida albicans isolate 34 (Erg11p: V488I,E266D, Fur1p: WT, Tac1p: N896S,I895T)	0.03 mg/L [S]	0.015 mg/L [S]	0.12 mg/L [S]	0.015 mg/L [S]	0.06 mg/L [S]	≤ 0.008 mg/L [S]	0.25 mg/L [S]	≤ 0.06 mg/L [S]	0.5 mg/L [S]
Candida albicans isolate 90 (Erg11p: WT, Fur1p: WT, Tac1p: N896S)	≤ 0.015 mg/L [S]	≤ 0.008 mg/L [S]	≤ 0.015 mg/L [S]	0.015 mg/L [S]	0.015 mg/L [S]	≤ 0.008 mg/L [S]	0.25 mg/L [S]	≤ 0.06 mg/L [S]	0.25 mg/L [S]
Candida albicans isolate 366 (Erg11p: E266D, Fur1p: WT, Tac1p: I558V,A377V,F189S,N174D,M170I,K87N)	0.06 mg/L [S]	≤ 0.008 mg/L [S]	0.06 mg/L [S]	0.015 mg/L [S]	0.03 mg/L [S]	≤ 0.008 mg/L [S]	0.5 mg/L [S]	≤ 0.06 mg/L [S]	0.5 mg/L [S]
Candida albicans isolate 209 (Erg11p: WT, Fur1p: WT, Tac1p: I558V,A377V,F189S,N174D,M170I,K87N)	≤ 0.015 mg/L [S]	≤ 0.008 mg/L [S]	0.06 mg/L [S]	0.015 mg/L [S]	0.03 mg/L [S]	≤ 0.008 mg/L [S]	0.5 mg/L [S]	≤ 0.06 mg/L [S]	0.25 mg/L [S]
Candida albicans isolate 332 (Erg11p: V437I,E266D, Fur1p: WT, Tac1p: F189S,N174D,M170I,A90T,K87N)	≥ 16 mg/L [R]	0.015 mg/L [S]	0.06 mg/L [S]	≥ 8 mg/L [R]	0.06 mg/L [S]	≥ 8 mg/L [R]	0.5 mg/L [S]	≤ 0.06 mg/L [S]	≥ 256 mg/L [R]
Candida albicans isolate 81 (Erg11p: WT, Fur1p: R101C, Tac1p: WT)	0.03 mg/L [S]	0.015 mg/L [S]	0.06 mg/L [S]	0.015 mg/L [S]	0.03 mg/L [S]	≤ 0.008 mg/L [S]	0.25 mg/L [S]	0.12 mg/L [S]	0.25 mg/L [S]
Candida albicans isolate 222 (Erg11p: E266D, Fur1p: WT, Tac1p: I558V,A377V,F189S,N174D,M170I,K87N)	0.06 mg/L [S]	0.015 mg/L [S]	0.06 mg/L [S]	0.03 mg/L [S]	0.06 mg/L [S]	≤ 0.008 mg/L [S]	0.25 mg/L [S]	≤ 0.06 mg/L [S]	0.25 mg/L [S]
Candida albicans isolate 196 (Erg11p: E266D,G129A, Fur1p: WT, Tac1p: R869Q,L695F,I558V,A377V,F189S,M170V,L131I)	0.03 mg/L [S]	0.015 mg/L [S]	≤ 0.015 mg/L [S]	0.015 mg/L [S]	0.015 mg/L [S]	≤ 0.008 mg/L [S]	0.25 mg/L [S]	≤ 0.06 mg/L [S]	0.5 mg/L [S]
Candida albicans isolate 331 (Erg11p: E266D, Fur1p: WT, Tac1p: I558V,A377V,F189S,N174D,M170I,K87N)	0.06 mg/L [S]	0.015 mg/L [S]	≤ 0.015 mg/L [S]	0.015 mg/L [S]	0.06 mg/L [S]	≤ 0.008 mg/L [S]	0.25 mg/L [S]	≤ 0.06 mg/L [S]	0.25 mg/L [S]
Candida albicans isolate 305 (Erg11p: E266D, Fur1p: WT, Tac1p: WT)	≤ 0.015 mg/L [S]	0.015 mg/L [S]	≤ 0.015 mg/L [S]	0.015 mg/L [S]	0.015 mg/L [S]	≤ 0.008 mg/L [S]	0.5 mg/L [S]	≤ 0.06 mg/L [S]	0.5 mg/L [S]
Candida albicans isolate 88 (Erg11p: V437I,E266D, Fur1p: WT, Tac1p: S937L,I895T,L695F,I558V,F189S,L131I)	≤ 0.015 mg/L [S]	≤ 0.008 mg/L [S]	0.06 mg/L [S]	0.015 mg/L [S]	0.03 mg/L [S]	≤ 0.008 mg/L [S]	0.5 mg/L [S]	≤ 0.06 mg/L [S]	0.5 mg/L [S]
Candida albicans isolate 251 (Erg11p: E266D,G129A, Fur1p: WT, Tac1p: R869Q,L695F,I558V,A377V,F189S,M170V,L131I)	≥ 16 mg/L [R]	≥ 8 mg/L [R]	≥ 8 mg/L [R]	≥ 8 mg/L [R]	≥ 8 mg/L [R]	≥ 8 mg/L [R]	≤ 0.12 mg/L [S]	≥ 64 mg/L [R]	≥ 256 mg/L [R]
Candida albicans isolate 10 (Erg11p: K342R,E266D, Fur1p: WT, Tac1p: I558V,A377V,F189S,N174D,M170I,K87N)	0.03 mg/L [S]	0.015 mg/L [S]	≤ 0.015 mg/L [S]	0.015 mg/L [S]	0.03 mg/L [S]	≤ 0.008 mg/L [S]	0.25 mg/L [S]	≤ 0.06 mg/L [S]	1 mg/L [S]
Candida albicans isolate 108 (Erg11p: G100V, Fur1p: WT, Tac1p: N896S)	0.03 mg/L [S]	≤ 0.008 mg/L [S]	≤ 0.015 mg/L [S]	0.015 mg/L [S]	0.015 mg/L [S]	≤ 0.008 mg/L [S]	0.25 mg/L [S]	≤ 0.06 mg/L [S]	0.5 mg/L [S]
Candida albicans isolate 177 (Erg11p: V488I,E266D, Fur1p: WT, Tac1p: N896S,A377V,F189S,N174D,M170I,K87N)	0.03 mg/L [S]	0.015 mg/L [S]	≤ 0.015 mg/L [S]	0.015 mg/L [S]	0.03 mg/L [S]	0.015 mg/L [S]	0.5 mg/L [S]	≤ 0.06 mg/L [S]	0.5 mg/L [S]

MIC of clinical C. albicans isolates, CLSI broth microdilution (ranges and time not stated); higher = less susceptible. Call: susceptible or wild type [S] / resistant or non-wild type [R] by CLSI breakpoints or epidemiological cut-offs; intermediate and dose-dependent carry no call here (the paper groups them with resistant). '<=' and '>=' mark each drug's lowest and highest value, inferred; the source prints them plain. Isolates are numbered anew.
